# Data reported in patent US20260055188A1 (SHENGHE CHINA BIOPHARMACEUTICAL, published 2026).
# Key:
# [1] = target: T1, Human-TNFR2-His (manufacturer: SINO, CAT: 10417-H08H) (human, UniProt P20333 23-257); test: flow cytometry, bridging: CHOK1-18.2 cells (human Claudin18.2) + 150 nM antibody + human TNFR2-His, anti-His FITC detection
# T1 construct: Bought protein; also called human TNFR2 protein; TNFR2 protein; not shown: His tag
# T1 sequence (looked up): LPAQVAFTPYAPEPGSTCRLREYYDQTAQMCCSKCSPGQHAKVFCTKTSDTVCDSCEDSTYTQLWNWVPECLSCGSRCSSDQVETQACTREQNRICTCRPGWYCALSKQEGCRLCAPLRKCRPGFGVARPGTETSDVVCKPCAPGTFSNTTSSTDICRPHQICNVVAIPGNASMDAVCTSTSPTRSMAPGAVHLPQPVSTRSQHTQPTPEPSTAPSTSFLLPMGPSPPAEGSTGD
# Method: (§1) Human TNFR2 protein (SINO, CAT: 10417-H08H) was sequentially added into 96-well plate with 100 μL/well, and after mixing, the 96-well plate was incubated at 4° C. for 1 h. Pre-cooled dilution was added and washed once, centrifuged (3000 rpm, 3 min), and the supernatant was discarded, and the cells were harvested. Fluorescent secondary antibody Anti-6X-his tag antibody (FITC) (manufacturer: abcam, Cat. No.: ab1206, Lot No.: GR3420599-3) was taken and diluted at the used concentration of 1:500. 100 μL of dilution was added to the blank control group, and 100 μL of fluorescent secondary antibody dilution was added to the rest of the sample groups respectively. After incubation for 0.5 h at room temperature and 4° C. protected from light, PBS was added to wash and centrifuged (3000 rpm, 3 min) twice. After discarding the supernatant, 80 μL of the dilution was added and resuspended.
# [2] = target: T1, Human-TNFR2-His (manufacturer: SINO, …); test: ELISA: Human-TNFR2-His coated (0.3 µg/mL), antibody titrated, goat anti-human IgG Fc detection, OD450 (Example 10)
# Method: Human-TNFR2-His (manufacturer: SINO, CAT: 10417-H08H, LOT: LC12SE2902) was diluted to 0.3 μg/mL with a coating solution (1×PBS, pH7.4), and coated into a 96-well ELISA plate at 100 μL/well overnight at 4° C. The coating solution was poured off. Each well was washed with 1×PBST at 300 μL, washed 4 times with a plate washer, and patted dry on a flat paper. It was blocked with 3% skim milk powder at 300 μL/well, and incubated at 37° C. for 1 h. The blocking solution was poured off, washed 4 times with a plate washer, and patted dry on a flat paper. Negative control and positive control were set up. […] The positive control and antibody were diluted to 10 μg/mL with 3% skim milk powder as the starting concentration, and then diluted by 3-fold gradient (11 gradients in total). A blank well was set up and only the diluent was added. It was incubated at 37° C. for 1 h at 100 μL/well. The liquid in the well was discarded, washed 4 times with a plate washer, and patted dry on a flat paper. Goat anti-human IgG Fc was diluted with 3% skim milk powder at 1:20000, and incubated at 37° C. for 1 h at 100 μL/well. It was washed 6 times with a plate washer, and patted dry on a flat paper. TMB color developing solution was added at 100 μL/well, and wrapped with aluminum foil. Color development was performed at 37° C. in the dark for 8 min. Termination solution 1M HCl was added to terminate the color development reaction at 100 μL/well. Readings were taken at 450 nm on an ELISA reader.
# [3] = target: T1, Human-TNFR2-His (manufacturer: SINO, …); test: BLI, antibody on AHC sensor, 100 nM human-TNFR2-His in solution
# Method: The AHC sensor was soaked in 0.02% PBST (0.02% Tween 20, pH 7.4, 1×PBS) as a buffer for 600 s to remove the sucrose covering the sensor surface. The AHC sensor was equilibrated with 0.02% PBST (0.02% Tween 20, pH 7.4, 1×PBS) as a buffer for 60 s, the antibody in the sample plate was solidified for 300 s, and the secondary equilibration buffer was used for 180 s. 100 nM human-TNFR2-His (manufacturer: SINO, CAT: 10417-H08H, LOT: LC12SE2902) protein was bound to the antibody for 300 s and then dissociated for 600 s. After dissociation, 10 mM glycine (pH 2.0) was used as a regeneration buffer for 30 s. The sensor was regenerated with 10 mM glycine (pH 2.0).
# [4] = target: T1, Human-TNFR2-His (manufacturer: SINO, …); test: flow cytometry, bridging: MCF-7 cells (human CD24) + 150 nM antibody + human TNFR2-His, anti-His FITC detection
# Method: as §1, with “Pre-cooled” for “Human TNFR2 protein (SINO, CAT: 10417-H08H) was sequentially added into 96-well plate with 100 μL/well, and after mixing, the 96-well plate was incubated at 4° C. for 1 h. Pre-cooled”
# [5] = target: T2, human CD24 on MCF-7 tumor cells (human, UniProt P25063 27-59); test: flow cytometry on MCF-7 cells, 150 nM antibody, anti-human IgG Fc detection
# T2 construct: whole, on cells; also called CD24 protein; MCF-7 tumor cells with high expression of human CD24
# T2 chain (looked up): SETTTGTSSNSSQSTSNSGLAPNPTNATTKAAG
# Method: 100 μL of dilution was added to the blank control group, and 100 μL of fluorescent secondary antibody dilution was added to the rest of the sample groups respectively. After incubation for 0.5 h at room temperature and 4° C. protected from light, PBS was added to wash and centrifuged (3000 rpm, 3 min) twice. After discarding the supernatant, 80 μL of the dilution was added and resuspended.
Binder,E1 Mean FITC-A [1],EC50 (read off the curve) [2] [pM],Kd [3] [pM],koff [3] [s⁻¹],kon [3] [M⁻¹ s⁻¹],E1 Mean FITC-A [4],E1 Mean PE-A [5]
"TC-A1 (bispecific antibody, human IgG1, kappa) light: DIVMTQSPSSLAVSLGERATINCKSSQSLLQSGNQKNYLTWYQQKPGQPPKLLIYWASTRESGVPDRFSGSGSGTDFTLTISSLQAEDVAVYYCQNNYIFPLTFGQGTKLEIKRTVAAPSVFIFPPSDEQLKSGTASVVCLLNNFYPREAKVQWKVDNALQSGNSQESVTEQDSKDSTYSLSSTLTLSKADYEKHKVYACEVTHQGLSSPVTKSFNRGEC heavy: QVQLVQSGAEVKKPGASVKVSCKASGYTFTSYWMHWVRQAPGQRLEWMGSIESNSAGTKYDERFKTRVTITRDTSASTAYMELSSLRSEDTAVYYCARFYYGNSFAYWGQGTLVTVSS[not shown - human IgG1 constant region]GGGGSGGGGSGGGGSEVQLVQSGAEVKKPGATVKISCKVSGYSITDYLLHWVQQAPGKCLEWMGWIDPEDAKTKYGQKFQSRVTITADTSTDTAYMELSSLRSEDTAVYYCAANSGTGTMDAWGQGTLVTVSSGGGGSGGGGSGGGGSDIVMTQSPATLSVSPGERATLSCKASQNVGSNVDWYQQKPGQSPRVLIYKASIRYTGIPARFSGSGSGTEFTLTISILQSEDFAVYFCMQSKSYPITFGCGTKLEIK",281000,,,,,,
"TD-A1 (bispecific antibody, human IgG1, kappa, also called antibody TD-A1) light: DIVMTQSPSSLAVSLGERATINCKSSQSLLYSNDQKNYLAWYQQKPGQSPKLLIYWASTRESGVPDRFSGSGSGTDFTLTISSLQAEDVAVYYCQQYFIYPLTFGGGTKLELKRTVAAPSVFIFPPSDEQLKSGTASVVCLLNNFYPREAKVQWKVDNALQSGNSQESVTEQDSKDSTYSLSSTLTLSKADYEKHKVYACEVTHQGLSSPVTKSFNRGEC heavy: EVQLQESGPGLVKPSQTLSLTCTVSGYSITSGYTWHWIRQFPGNKLEWIGHIQYTGNTKYNPSLESRITISRDTSKNQFSLKLSSVTAADTATYYCARGSTNSNDYWGQGTLVTVSS[not shown - human IgG1 constant region]GGGGSGGGGSGGGGSEVQLVQSGAEVKKPGATVKISCKVSGYSITDYLLHWVQQAPGKCLEWMGWIDPEDAKTKYGQKFQSRVTITADTSTDTAYMELSSLRSEDTAVYYCAANSGTGTMDAWGQGTLVTVSSGGGGSGGGGSGGGGSDIVMTQSPATLSVSPGERATLSCKASQNVGSNVDWYQQKPGQSPRVLIYKASIRYTGIPARFSGSGSGTEFTLTISILQSEDFAVYFCMQSKSYPITFGCGTKLEIK",,~400,523,0.000123,236000,7.23e+06,3.28e+06
"TD-D2 (bispecific antibody, human IgG4 S228P, kappa, also called antibody TD-D2) light: DIVMTQSPSSLAVSLGERATINCKSSQSLLYSNDQKNYLAWYQQKPGQSPKLLIYWASTRESGVPDRFSGSGSGTDFTLTISSLQAEDVAVYYCQQYFIYPLTFGGGTKLELKRTVAAPSVFIFPPSDEQLKSGTASVVCLLNNFYPREAKVQWKVDNALQSGNSQESVTEQDSKDSTYSLSSTLTLSKADYEKHKVYACEVTHQGLSSPVTKSFNRGEC heavy: EVQLVESGGGLVQPGGSLRLSCAASGSRLDYYAVAWFRQAPGKEREEVSCITYSGGSTNYAESVKGRFTISRDNSKNTLYLQMNSLRAEDTAVYYCTTEPYGSSCPLSGYDTWGQGTLVTVSSGGGGSGGGGSGGGGSEVQLQESGPGLVKPSQTLSLTCTVSGYSITSGYTWHWIRQFPGNKLEWIGHIQYTGNTKYNPSLESRITISRDTSKNQFSLKLSSVTAADTATYYCARGSTNSNDYWGQGTLVTVSSASTKGPSVFPLAPCSRSTSESTAALGCLVKDYFPEPVTVSWNSGALTSGVHTFPAVLQSSGLYSLSSVVTVPSSSLGTKTYTCNVDHKPSNTKVDKRV[not shown - human IgG4 Fc with S228P (EU numbers)]",,~100,,,,,
"TD-A2 (bispecific antibody, human IgG4 S228P, kappa, also called antibody TD-A2) light: DIVMTQSPSSLAVSLGERATINCKSSQSLLYSNDQKNYLAWYQQKPGQSPKLLIYWASTRESGVPDRFSGSGSGTDFTLTISSLQAEDVAVYYCQQYFIYPLTFGGGTKLELKRTVAAPSVFIFPPSDEQLKSGTASVVCLLNNFYPREAKVQWKVDNALQSGNSQESVTEQDSKDSTYSLSSTLTLSKADYEKHKVYACEVTHQGLSSPVTKSFNRGEC heavy: EVQLQESGPGLVKPSQTLSLTCTVSGYSITSGYTWHWIRQFPGNKLEWIGHIQYTGNTKYNPSLESRITISRDTSKNQFSLKLSSVTAADTATYYCARGSTNSNDYWGQGTLVTVSSASTKGPSVFPLAPCSRSTSESTAALGCLVKDYFPEPVTVSWNSGALTSGVHTFPAVLQSSGLYSLSSVVTVPSSSLGTKTYTCNVDHKPSNTKVDKRV[not shown - human IgG4 Fc with S228P (EU numbers)]GGGGSGGGGSGGGGSEVQLVQSGAEVKKPGATVKISCKVSGYSITDYLLHWVQQAPGKCLEWMGWIDPEDAKTKYGQKFQSRVTITADTSTDTAYMELSSLRSEDTAVYYCAANSGTGTMDAWGQGTLVTVSSGGGGSGGGGSGGGGSDIVMTQSPATLSVSPGERATLSCKASQNVGSNVDWYQQKPGQSPRVLIYKASIRYTGIPARFSGSGSGTEFTLTISILQSEDFAVYFCMQSKSYPITFGCGTKLEIK",,~500,,,,,
"TD-D1 (bispecific antibody, human IgG1, kappa, also called antibody TD-D1) light: DIVMTQSPSSLAVSLGERATINCKSSQSLLYSNDQKNYLAWYQQKPGQSPKLLIYWASTRESGVPDRFSGSGSGTDFTLTISSLQAEDVAVYYCQQYFIYPLTFGGGTKLELKRTVAAPSVFIFPPSDEQLKSGTASVVCLLNNFYPREAKVQWKVDNALQSGNSQESVTEQDSKDSTYSLSSTLTLSKADYEKHKVYACEVTHQGLSSPVTKSFNRGEC heavy: EVQLVESGGGLVQPGGSLRLSCAASGSRLDYYAVAWFRQAPGKEREEVSCITYSGGSTNYAESVKGRFTISRDNSKNTLYLQMNSLRAEDTAVYYCTTEPYGSSCPLSGYDTWGQGTLVTVSSGGGGSGGGGSGGGGSEVQLQESGPGLVKPSQTLSLTCTVSGYSITSGYTWHWIRQFPGNKLEWIGHIQYTGNTKYNPSLESRITISRDTSKNQFSLKLSSVTAADTATYYCARGSTNSNDYWGQGTLVTVSS[not shown - human IgG1 constant region]",,~70,1440,0.000667,464000,6.32e+06,4.03e+06
